Drawing on the RNAGym collection of RNA variant scans (doi:10.7554/elife.90254), this text covers self-cleavage for 167 variants.

Read counts are not given, so values of variants with three or more changes are uncertain.

B1: LINE1-mini (parent)
chain: GGCAGAGCUCAACACAGCGUGGCAAAGUGGCUGUGGCUAGACUGCC

In this data set the parent is B1. Kind of data set: self-cleavage, relative activity (ratio to wild type); higher = more cleavage; in vitro, sequencing; the parent is a self-cleaving ribozyme.
On to G5U G22U U32A G33U U43A, for which the self-cleavage was 0.03.
Next, G5U C23G U38A: 0.08.
Turning to G5U C18A A25G C31A U43G C46U, the self-cleavage was determined as 0.
The figure for G5U U28C G30A C31G G44A is 0.01; for G5U C23U C31A C45U it is 0.02; for G5U G29C G40U it is 0.02.
The figure for G5U G27U G33A is 0.03; for G5U U9G G29U it is 0.12; for A6C A11C A41U it is 0.07.
Next, G5U G17U U34C: 0.06; G5U C15G G17A: 0.05.
Regarding G5U U9G C46U, the self-cleavage was determined as 0.04.
Next, G5U C23G C31U: 0.03; G5U C15A G19U: 0.03; G5U G7A G21U C23A: 0.54.
Next, G5U C18A G27A U32C: 0.13; G5U C13U U43G: 0.11.
The figure for G5U U9C G17C C45A is 0.02.
Regarding G5U C13G G17A C42A, the self-cleavage turned out to be 0.01.
Next, G5U C23A C46A: 0.11.
The figure for G5U C10A G19A C31A is 0.02; for G5U U9G C10U G36C it is 0.01.
Next, A6C A11C G33A: 0.01; G5U G21U A39C: 0.03.
In the case of G5U G22A G30A, the self-cleavage amounted to 0.01.
Next, G5U C18A A25G G30C: 0.01; G5U C13U A16G A24C G33U G40C: 0.01; G5U G7C U20C: 0.11.
Turning to G5U G17A C42G, the self-cleavage was determined as 0.05.
The figure for G5U G7U C15G G19U C37U is 0.45; for G5U G19C G21U U32A A41G it is 0.01; for G5U C18A G35U U43G it is 0.01.
The figure for G5U G27A A41C C45A is 0.02; for G5U C15U C45U it is 0.08.
The figure for G5U C23A U38C G40A C46U is 0.01.
With G5U U20A A39C G44A, the self-cleavage was 0.02.
Next, G5U G7C A14G: 0.08; G5U C15A A16G G27A C42U: 0.08.
The figure for G5U C23A A25C U28C G36C G40U is 0.03; for G5U C23G A26G C37A it is 0.03; for G5U C31G A39G it is 0.06.
Next, G5U U20C C31G G40A C46U: 0.01; G5U U43C G44U: 0.27; G5U C10U G36A C45U: 0.07.
Regarding G5U C15A A24U A39U, the self-cleavage is 0.05.
Turning to G5U C23U A26G, the self-cleavage came to 0.03.
Next, G5U C13A G36U: 0.23.
The figure for G5U G29A G35U C42A is 0.03; for G5U G7A C10U C23U G29A it is 0.03; for G5U C15U G17C C18A G35U C37G A41C it is 0.03.
Next, G5U G7C A14G G27U: 0.04.
Regarding G5U G17C A26C G27C, the self-cleavage stood at 0.11.
The figure for G5U G33A A41G is 0.
G5U C10A G17C G36A: the self-cleavage stood at 0.01.
As to G5U C31G A41C, the self-cleavage stood at 0.04.
On to G5U U28G A41C, for which the self-cleavage stood at 0.03.
Next, G5U U9A A16G A24C U28C G33C: 0; G5U G30A U32C: 0.09; A6C A11C A14U G36C: 0.02.
Regarding G5U G27A A41G, the self-cleavage came to 0.03.
The figure for G5U C15A G29U is 0.02.
Next, G5U U20G U28C: 0.06; G5U C15U A16U G29U: 0.04; G5U G33U A39G: 0.08.
As to G5U G7U U20G, the self-cleavage was found to be 0.23.
The figure for G5U C15A G33U is 0.04; for G5U G27C C42A U43A it is 0.03; for G5U U20A U32C it is 0.02.
As for G5U U32C G35C, the self-cleavage was 0.02.
The figure for G5U G44A C46U is 0.04.
The figure for G5U U20G C23U A41G U43A is 0.23; for G5U G19C G35U it is 0.04; for G5U C15U A26U G29U G35C G40U A41U U43C it is 0.03.
Next, G5U G22U U38G A39C: 0.07; G5U G7C G22A G27C: 0.04; G5U G7C A14U U28C C31A G44C C45U: 0.05.
For the variant G5U G27A U43G G44C, the self-cleavage stood at 0.02.
Next, G5U C10A G21U: 0.05; G5U G29U U34A C37U: 0.03; G5U C13A C18G U32A A39U C45G: 0.02.
The figure for G5U C15U G17C G19C is 0.06.
The figure for G5U G17U G33U A41C C45G is 0.02.
In the case of G5U G21A G27A, the self-cleavage was 0.07.
The figure for G5U C13U G36U is 0.04; for G5U G22A C45G it is 0.03.
The figure for G5U C15U G19C U34C A41C is 0.02; for G5U G35A U43C it is 0.04.
The figure for G5U C10A G22U C23U U38C is 0.01.
For the variant G5U C23G C37A, the self-cleavage was found to be 0.04.
Next, G5U U34A C37U: 0.02; G5U G27C G36U: 0.02; G5U G21C U38G: 0.01.
With G5U U20A U28C, the self-cleavage came to 0.24.
Take G5U C10U C46A: the self-cleavage came out at 0.03.
For the variant G5U G7C G17U G22U G29A, the self-cleavage came out at 0.06.
The figure for G5U U9G A24U A41U is 0.05.
Next, G5U G27U G35A G36C G44A: 0.03.
The figure for G5U G35U A39U is 0.08; for G5U C23G A26C G36U C42A it is 0.03.
Regarding G5U C13U A14U, the self-cleavage came to 0.01.
Next, A6C A11C G21A U32G G44C: 0; G5U G7C A12U G27U: 0.05; G5U C13G A24C G44C: 0.02.
For the variant G5U C15A G17U, the self-cleavage stood at 0.04.
Next, G5U G30C G35A A41U: 0.03.
Consider G5U C10A C23U C37U A39G, for which the self-cleavage is 0.01.
As for G5U C15G A24C G36A, the self-cleavage amounted to 0.03.
Regarding G5U G21U C23G C31U, the self-cleavage came out at 0.19.
In the case of G5U C13G C15U, the self-cleavage stood at 0.02.
The figure for G5U G36C C46U is 0.03.
Next, G5U G7C C13G A25G C46U: 0.06.
As for G5U G22U A26G A39C C42A, the self-cleavage is 0.02.
The figure for G5U U9G U28A C46A is 0.08; for G5U G7U G30U it is 0.18; for G5U C13A C18A it is 0.03.
For G5U G7A G17A C18A, the self-cleavage came out at 0.07.
The figure for G5U U34G C46U is 0.01; for G5U C10A C18U G29A C46U it is 0.03.
Turning to G5U U9A C18A C23A, the self-cleavage came out at 0.05.
In the case of G5U C10A C45G, the self-cleavage turned out to be 0.
The figure for G5U C10A C45U is 0.02; for G5U G19C C23G it is 0.03; for G5U G33U G40U it is 0.03.
Next, G5U U20G G22A: 0.14; G5U C10A C42G: 0.03; G5U G33C C37A: 0.04.
On to G5U C15A U38A, for which the self-cleavage worked out at 0.08.
The figure for G5U G22A U28A C45G is 0.02; for G5U C37A A39U C46G it is 0.02; for G5U C15A A16C G29C G33A it is 0.09.
As for G5U G17A A24C G30C A41C, the self-cleavage was found to be 0.01.
Turning to G5U G44C C45U, the self-cleavage came to 0.08.
As for G5U G30A A41G, the self-cleavage was determined as 0.07.
For the variant G5U G35U U38G, the self-cleavage was 0.04.
The figure for G5U C37A A41U is 0.34.
As to G5U G44U C45A, the self-cleavage came out at 0.05.
Next, G5U G36U C45G: 0.02; G5U C45G C46U: 0.05; G5U G19U G29U U38G: 0.01.
For G5U U28G G29U, the self-cleavage came out at 0.2.
The figure for G5U C13G C15U G27A U38C is 0.08; for G5U C10A G17C U20C it is 0.04; for G5U U32G C46G it is 0.04.
Consider G5U C10G A12U C15U, for which the self-cleavage came out at 0.03.
Next, G5U C10A G27U: 0.05; G5U U34C C42A: 0.04; G5U U20C G30C: 0.
Next, G5U C10A G17C A26U G40A: 0.02; G5U C15G G17U C23G: 0.04; G5U G30A G44U: 0.05.
For G5U U34G G40C C45G, the self-cleavage came to 0.01.
Next, G5U U32C A41G: 0.02.
Regarding G5U C31G G40U, the self-cleavage was found to be 0.12.
The figure for G5U C37A U43C is 0.1; for G5U U32G U34G C42A it is 0.01; for G5U G19U U32G it is 0.02.
In the case of G5U C10G U34A, the self-cleavage worked out at 0.04.
The figure for G5U C10A G35U A39U is 0.01.
The figure for G5U C13U C23G G40C U43A G44A is 0.06; for G5U U9G A12C A14G G21U U38G it is 0.02; for G5U G19C G29U it is 0.27.
The figure for G5U G7U A11U A26C is 0; for G5U U34A G44C it is 0.03; for G5U G27C G44U C46U it is 0.14.
With G5U C15G C18U, the self-cleavage came out at 0.06.
The figure for G5U G7U G21C is 0.2; for G5U G33C G35U it is 0.06.
